Screen size: about 230,000 compounds; about 3,600 (1.6%) were called active. Inconclusive results, whose numbers are uncertain, are shown with a selection of clear calls. The call rests on the fitted dose curve; in most records, active means well fitted inhibition curve with a large enough effect (not every such curve was filed as active); inconclusive means small, poorly fitted or top-dose-only effect, or another doubt; inactive means no such curve, though single readings can be large or run the other way. A potency beside an inconclusive call is a rough fit, not a confirmed value. A structure can be active in one record and inactive in another.
molecular target: Lysine-specific demethylase 4E (Homo sapiens) (UniProt B2RXH2); assay: qHTS Assay for Inhibitors of Human Jumonji Domain Containing 2E (JMJD2E); settings: JMJD2E catalytic domain, FDH-coupled NADH fluorescence (FDH is formaldehyde dehydrogenase); series mostly up to 57.1 µM
Further: nearly all actives have a fitted effect of over 50% in size.
Potency means the concentration at half of the fitted maximal effect; tags describe the fitted curve by direction and shape.

Sequence of UniProt B2RXH2 (B2RXH2 whole entry, looked up, the tested form may be a part): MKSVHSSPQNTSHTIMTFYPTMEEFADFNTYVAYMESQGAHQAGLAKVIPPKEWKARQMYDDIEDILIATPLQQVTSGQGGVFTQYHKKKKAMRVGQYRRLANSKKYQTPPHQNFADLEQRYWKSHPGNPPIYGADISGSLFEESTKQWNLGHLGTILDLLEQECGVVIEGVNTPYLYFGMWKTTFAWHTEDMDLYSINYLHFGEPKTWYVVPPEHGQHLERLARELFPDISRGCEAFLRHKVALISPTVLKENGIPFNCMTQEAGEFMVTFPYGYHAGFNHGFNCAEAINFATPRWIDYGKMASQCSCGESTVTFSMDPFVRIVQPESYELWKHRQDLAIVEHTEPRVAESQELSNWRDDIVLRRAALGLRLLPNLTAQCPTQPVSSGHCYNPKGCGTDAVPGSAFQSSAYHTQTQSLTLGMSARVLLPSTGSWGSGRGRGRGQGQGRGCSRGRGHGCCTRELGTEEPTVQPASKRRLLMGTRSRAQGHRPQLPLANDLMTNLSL

Row | SMILES | Potency
1 | COc1ccc(OC)c(-c2nc(CN3CCCCC3c3cccnc3)c(C)o2)c1 (centres undefined) | inconclusive: 31.6 µM [inhibitor, partial curve]
2 | Cc1cc(C)c2nc(Cl)c(Cl)nc2c1 | inactive
3 | O=C(O)CCNS(=O)(=O)c1ccc2ccccc2c1 | inactive
4 | Cc1cccc(-n2c(SCc3ccc([N+](=O)[O-])cc3)nnc2-c2c[nH]c3ccccc23)c1 | inactive
5 | COc1ccc(C(=O)N2CCC(C(=O)Nc3ccccc3OC)CC2)cc1 | inactive
6 | N#Cc1c(N)n(CCc2ccc(F)cc2)c2nc3ccccc3nc12 | inconclusive: 25.1 µM [inhibitor, partial curve]
7 | COc1ccc(C2=NN(c3nc(-c4ccccc4)c(CC(=O)O)s3)C(c3ccco3)C2)cc1 (centres undefined) | inconclusive: 31.6 µM [inhibitor, partial curve]
8 | COc1cccc2c(=O)cn[nH]c12 | inconclusive: 31.6 µM [inhibitor, partial curve]
9 | CC[C@H](C)C(=O)O[C@H]1C[C@@H](C)C=C2C=C[C@H](C)[C@H](CC[C@@H]3C[C@@H](O)CC(=O)O3)[C@H]21 | inconclusive: 39.8 µM [inhibitor, single point]
10 | Cc1ccc(Cn2c(CN(C)Cc3ccccc3)nc3c2c(=O)n(C)c(=O)n3C)cc1 | inactive
11 | COc1cccc(/C=C/C(=O)OCC(=O)NCCC2=CCCCC2)c1 | inactive
12 | Cc1cccc(NC(=S)NC23CN4CN(CN(C4)C2)C3)c1C | inactive
13 | CCN(Cc1nc2ccccc2c(=O)[nH]1)Cc1nc2cc(OC)c(OC)cc2c(=O)[nH]1 | inconclusive: 39.8 µM [inhibitor, single point]
14 | CCCN1CCCc2cc(CN(CCCN3CCOCC3)C(=O)Nc3ccc(OCC)cc3)ccc21 | inconclusive: 35.5 µM [inhibitor, single point]
15 | CC(=O)c1cc2c(=O)c3cc(C)ccc3oc2nc1C | inconclusive: 22.4 µM [inhibitor, partial curve]
16 | Cc1cccc(Cn2nnc3c2C(=O)c2ccccc2C3=O)c1 | inactive
17 | COC(=O)c1nc(N)sc1-c1ccc(OC)cc1 | inconclusive: 39.8 µM [inhibitor, single point]
18 | COC(=O)c1c(NC(=O)CN2C(=O)NC3(CCC(C(C)(C)C)CC3)C2=O)sc2c1CCCCC2 (centres undefined) | inactive
19 | Clc1ccc(OCCn2c(-c3ccco3)nc3ccccc32)cc1 | inconclusive: 39.8 µM [inhibitor, single point]
20 | Cc1nc(C)c(-c2ccn(C(=O)NC(C)C)n2)s1 | inactive
21 | Clc1ccc(CSc2nnc(/C=C/c3ccccc3)o2)cc1 | inconclusive: 3.55 µM [inhibitor, single point]
22 | CC(=O)O[C@H]1C2OC(=O)C(C)=C2[C@@H]2OC(=O)[C@]3(CCC4OC41C)OC23 (some centres undefined) | inactive
23 | O=C(CCCCC(=O)NC1CCCC1)NC1CCCC1 | inactive
24 | Cc1cc(-c2cc(-c3ccc(Cl)cc3)on2)nc(NC2CCCC2)n1 | inconclusive: 8.91 µM [inhibitor, single point]
25 | Cc1ccc(C)n1-c1ccccc1N | inconclusive: 39.8 µM [inhibitor, single point]

Row | SMILES | Potency
26 | NC(=O)c1nsc(C(=O)N(CC(=O)NC2CCCC2)Cc2ccc3c(c2)OCO3)c1N | inconclusive: 28.2 µM [inhibitor, partial curve]
27 | CCN(CC)S(=O)(=O)c1ccc2nnn(OCC(=O)Nc3cccc(C#N)c3)c2c1 | inactive
28 | CC1CN(C(=O)Nc2ccc3snnc3c2)c2ccccc21 (centres undefined) | inconclusive: 39.8 µM [inhibitor, single point]
29 | CCN(C(=O)Cc1cccs1)c1nnc(-c2cc(OC)c(OC)c(OC)c2)s1 | inconclusive: 25.1 µM [inhibitor, partial curve]
30 | C[c-]1[c-](C)[c-](C)[c-](C)[c-]1C.[Fe].c1cc2nccc(N3CCCC3)[c-]2c1 (centres undefined) | active: 10 µM
31 | COCCCN=Cc1c(C)[nH]n(-c2ccc(Br)cc2Br)c1=O | inactive
32 | Cc1c(Cl)cccc1N1C(=O)CC(NNC(=O)c2cccnc2)C1=O (centres undefined) | inconclusive: 25.1 µM [inhibitor, single point]
33 | Cc1ccccc1C(=O)c1cccn1CC(=O)N1CCCCCC1 | inconclusive: 35.5 µM [inhibitor, single point]
34 | COc1cc2oc(-c3ccccc3)cc(=O)c2cc1OC | inconclusive: 22.4 µM [inhibitor, partial curve]
35 | COC(=O)C1=C(C)NC(=O)NC1c1ccc(-c2ccc(F)cc2)o1 (centres undefined) | inactive
36 | O=c1[nH]c(CN2CCOCC2)nc2ccccc12 | inactive
37 | CCOC(=O)c1cnc2c(cnn2C)c1NCCCn1ccnc1 | inconclusive: 22.4 µM [inhibitor, partial curve]
38 | COc1cc(-c2cc(=O)c3c(O)c(OC)c(OC)cc3o2)cc(OC)c1O | inconclusive: 39.8 µM [inhibitor, single point]
39 | CCOc1cccc(/C=N/NC(=S)Nc2cc(S(=O)(=O)N3CCOCC3)ccc2N2CCOCC2)c1O | active: 31.6 µM
40 | O=C(CCCn1c(=S)[nH]c2ccccc2c1=O)NC1CCCC1 | inactive
41 | COc1ccc(N/C=C(\C(C)=O)c2ccc(OC)c(OC)c2)cc1OC | inconclusive: 20 µM [inhibitor, single point]
42 | COc1cccc(/C=C/C(=O)OCC(=O)c2cc(C)n(CC3CCCO3)c2C)c1OC (centres undefined) | inconclusive: 20 µM [inhibitor, partial curve]
43 | COc1cccc(OCc2cc(C3Nc4ccccc4C(=O)N3Cc3ccco3)ccc2OC)c1 (centres undefined) | inconclusive: 3.98 µM [inhibitor, full curve]
44 | CC12COC3(C(=O)N4CCN(c5ccccn5)CC4)CC1CCC32C (centres undefined) | inconclusive: 35.5 µM [inhibitor, single point]
45 | Cc1ccc(-c2nn(-c3ccccc3)cc2CN(C)C(=O)CCC(=O)O)cc1C | inconclusive: 39.8 µM [inhibitor, single point]
46 | COc1cccc(-n2cc(CNCc3cn(C)nc3-c3ccccc3F)cn2)c1 | inconclusive: 28.2 µM [inhibitor, single point]
47 | COCCn1c(=NC(=O)CSCC(=O)Nc2cc(C)on2)sc2cc(C(=O)OC)ccc21 | inconclusive: 39.8 µM [inhibitor, single point]
48 | Clc1ccc(-c2nnc(-c3cccc4ccccc34)o2)cc1Cl | inconclusive: 10 µM [inhibitor, partial curve]
49 | NS(=O)(=O)c1ccc(NC(=S)NCc2ccccc2)cc1 | inactive
50 | COc1cc(-c2onc3ccc(Br)cc23)cc(OC)c1OC | inconclusive: 31.6 µM [inhibitor, partial curve]

Row | SMILES | Potency
51 | CCOc1ccc(-c2cn(-c3cccc(SC)c3)c(=O)[nH]2)cc1 | inactive
52 | O=C1c2ccccc2C(Nc2ccc(-c3nc4ccccc4[nH]3)cc2)N1Cc1ccco1 (centres undefined) | inconclusive: 31.6 µM [inhibitor, partial curve]
53 | Cc1cc2[nH]c3ccccc3c2c(C)n1 | inconclusive: 31.6 µM [inhibitor, partial curve]
54 | CCOC(=O)c1c(NC(=O)CSc2nc3cc(Cl)ccc3c(=O)n2Cc2ccco2)sc(C(=O)N(C)C)c1C | inconclusive: 39.8 µM [inhibitor, single point]
55 | Cc1c(N/N=C(\C#N)C(=O)c2ccc(Cl)cc2)c(=O)n(-c2ccccc2)n1C | inactive
56 | CN1CCN(c2ncnc3c2[nH]c2ccc(F)cc23)CC1 | inconclusive: 31.6 µM [inhibitor, partial curve]
57 | COc1ccc(O)c(/C=N/NC(=O)CSc2nnc(C)n2-c2ccccc2)c1 | active: 22.4 µM
58 | CC1=Nc2ccccc2/C1=C\c1nc(-c2ccc(C(F)(F)F)cc2)oc1O | inactive
59 | C[N+]1(CC2COC3(CCCCC3)O2)CCCCC1 (centres undefined) | inactive
60 | COc1cc(NC(=O)c2onc(C)c2Cl)c(OC)cc1Cl | inconclusive: 35.5 µM [inhibitor, single point]
61 | Cc1ncoc1C(=O)N1CCCC(C(=O)c2cccc(OC(C)C)c2)C1 (centres undefined) | inactive
62 | CC(CCc1ccccc1)NC(=O)C1CCCN(c2nnc(-n3cccc3)s2)C1 (centres undefined) | inactive
63 | Cc1c(Cl)cccc1NC(=O)c1cc(-c2ccccc2O)n[nH]1 | inactive
64 | Cc1csc(NC(=O)C2CCCN(S(=O)(=O)c3ccc4c(c3)oc(=O)n4C)C2)n1 (centres undefined) | inactive
65 | O=C(O)Cc1c[nH]c2cccc(O)c12 | inconclusive: 17.8 µM [inhibitor, single point]
66 | CCOC(=O)/C=c1\s/c(=C\c2ccc3cc(OC)ccc3c2)c(=O)n1CC(=O)NCC1CCCO1 (centres undefined) | inconclusive: 31.6 µM [inhibitor, partial curve]
67 | COCC(=O)Nc1sc2c(c1C(=O)OC)CCCC2 | inactive
68 | CCOC(=O)c1cc(C#N)c(SCC(N)=O)[nH]c1=O | inconclusive: 28.2 µM [inhibitor, partial curve]
69 | COCCCn1c(SCC(=O)N2CCCC(C)C2)nnc1-c1ccco1 (centres undefined) | inactive
70 | COC(=O)c1sc2ncccc2c1OCc1ccccc1Cl | inconclusive: 28.2 µM [inhibitor, partial curve]
71 | O=C(NC1(O)C(=O)c2ccccc2C1=O)c1ccccc1 | inconclusive: 14.1 µM [inhibitor, partial curve]
72 | COc1ccc2cc(C(c3nnnn3CCc3ccccc3)N3CCCC(C)C3)c(=O)[nH]c2c1 (centres undefined) | inconclusive: 25.1 µM [inhibitor, partial curve]
73 | Cn1c(=O)c2ncn(CC(=O)Nc3cccc(-c4nc5ccccc5s4)c3)c2n(C)c1=O | inconclusive: 20 µM [inhibitor, partial curve]
74 | CC(C)OCCCn1c(=N)c(C(N)=S)cc2c(=O)n3ccccc3nc21 | inconclusive: 28.2 µM [inhibitor, partial curve]

From PubChem BioAssay AID2147 (National Center for Advancing Translational Sciences (NCATS), 2009)
